# Test results taken from publication PMC4336329 (PLoS ONE, 2015).
# Screen size: about 310,000 compounds; about 14,000 (4.5%) showed an effect of 50% or more. Effects have a minus sign here. The list shows a part of the results.
# Biological target: human ether-à-go-go-related gene (hERG) potassium channel (human, UniProt Q12809)
# Assay: primary screen, population patch clamp on CHO cells stably expressing hERG
# 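Further: peak tail current of the secondary pulse compared with the same well before compound.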
# human ether-à-go-go-related gene (hERG) potassium channel, sequence (Q12809 whole entry, looked up): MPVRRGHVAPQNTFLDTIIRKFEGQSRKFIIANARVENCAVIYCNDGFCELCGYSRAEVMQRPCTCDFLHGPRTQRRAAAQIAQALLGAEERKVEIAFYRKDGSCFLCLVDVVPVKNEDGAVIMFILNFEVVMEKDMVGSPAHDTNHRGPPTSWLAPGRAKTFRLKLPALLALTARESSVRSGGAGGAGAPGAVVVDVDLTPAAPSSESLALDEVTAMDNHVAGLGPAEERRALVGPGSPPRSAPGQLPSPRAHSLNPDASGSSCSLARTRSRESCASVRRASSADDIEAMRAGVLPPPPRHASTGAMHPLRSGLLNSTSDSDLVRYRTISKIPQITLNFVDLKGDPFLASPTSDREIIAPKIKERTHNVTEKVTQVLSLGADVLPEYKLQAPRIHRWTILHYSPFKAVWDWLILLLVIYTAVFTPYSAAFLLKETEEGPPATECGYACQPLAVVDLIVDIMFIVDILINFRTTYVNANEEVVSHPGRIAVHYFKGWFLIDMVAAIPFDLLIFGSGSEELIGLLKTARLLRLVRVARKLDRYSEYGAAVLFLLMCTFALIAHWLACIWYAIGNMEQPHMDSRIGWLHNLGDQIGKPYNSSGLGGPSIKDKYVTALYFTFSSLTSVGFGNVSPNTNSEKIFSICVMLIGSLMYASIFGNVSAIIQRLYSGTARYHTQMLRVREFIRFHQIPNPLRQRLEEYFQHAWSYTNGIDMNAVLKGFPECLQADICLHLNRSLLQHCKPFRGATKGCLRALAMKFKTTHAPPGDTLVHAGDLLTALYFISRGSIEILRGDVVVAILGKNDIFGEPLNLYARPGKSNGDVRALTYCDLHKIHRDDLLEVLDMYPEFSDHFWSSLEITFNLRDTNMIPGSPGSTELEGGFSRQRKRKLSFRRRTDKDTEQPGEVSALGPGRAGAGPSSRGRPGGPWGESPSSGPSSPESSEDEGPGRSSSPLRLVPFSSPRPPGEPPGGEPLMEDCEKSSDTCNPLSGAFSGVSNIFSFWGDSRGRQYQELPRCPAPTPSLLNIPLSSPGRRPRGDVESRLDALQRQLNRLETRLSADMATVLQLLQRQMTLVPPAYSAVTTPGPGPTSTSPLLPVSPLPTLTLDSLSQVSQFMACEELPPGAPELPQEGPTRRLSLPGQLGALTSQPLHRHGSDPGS
row,SMILES,"hERG current change (%, negative = inhibition) at 10uM"
1,C#CC1(NC(=O)NCCCC)CCCCC1,14.3%
2,NS(=O)(=O)c1cccc(NC(=O)c2cc3ccccc3o2)c1,9.45%
3,COc1ccc(-c2nnc3sc(COc4ccccc4)nn23)cc1,-9.16%
4,C=C1C(=O)[C@@]23[C@H](O)C[C@@H]4C(C)(C)CC[C@H](O)[C@]4(C)[C@@H]2C[C@H](O)[C@@H]1[C@H]3O,-0.141%
5,CCCCn1c(N)c(N(C)C(=O)c2cn(-c3ccccc3)nc2-c2ccccc2)c(=O)[nH]c1=O,-1.58%
6,CCN(CC)CCCNC(=O)c1csc(Nc2cccc3ccccc23)n1,-71.6%
7,CC(C)c1nc2cc(C(=O)NC(c3cccnc3)C(F)(F)F)ccc2o1 (stereo not shown),-2.83%
8,Oc1ccc(/C=N/Nc2ccc(Cl)nn2)c(O)c1O,21.6%
9,COc1cc([N+](=O)[O-])ccc1NC(=O)C[n+]1cccc(C)c1.[Cl-],-5.3%
10,COc1ccc(-n2ncc(C(=O)N3CCN(c4ccc(F)cc4)CC3)c2C)cc1,-22.6%
11,Cc1ccc(S(=O)OCC(=O)Nc2cc(Cl)ccc2N2CCOCC2)cc1 (stereo not shown),3%
12,CCOC(=O)COc1cc2c(C(=O)OCC)c(C)oc2cc1Br,21.1%
13,Cc1cc(-c2nnc(SCC(=O)Nc3ccccc3C(F)(F)F)o2)c(C)n1-c1ccccc1,3.66%
14,Cc1cc(C(=O)N=Nc2c(O)n(C)c3ccccc23)c(C)o1,7.83%
15,Cc1ccc(-c2n[nH]c(=O)c3ccccc23)cc1S(=O)(=O)NC(C)(C)C,13.6%
16,CCc1ccccc1NC1=NCC(=O)N1Cc1ccccc1,4.53%
17,CC1CCc2c(C(=O)Nc3nccs3)csc2C1 (stereo not shown),14.3%
18,CC(=O)C1=C(O)C(=O)N(c2nnn(C)n2)C1c1cccs1 (stereo not shown),8.42%
19,COCCCNc1nc2nonc2nc1N1CCC(C(C)N2CCOCC2)CC1 (stereo not shown),23.5%
20,Nc1cc(-c2nn[nH]n2)ccc1F,11.6%
21,CC(C)=C1SC(N2CCN(c3ccc(C)c(Cl)c3)CC2)=NC1=O,3.91%
22,CCOC(=O)N1CCN(C(=O)c2ccc3nc(N4CCC(C)CC4)sc3c2)CC1,-12.2%

row,SMILES,"hERG current change (%, negative = inhibition) at 10uM"
1,O=C(NNC(=O)c1ccccc1C(F)(F)F)c1csc(N2CCOCC2)n1,20.7%
2,CS(=O)(=O)NCc1nnc(SCc2ccc(C(F)(F)F)cc2)o1,-22.7%
3,COc1cccc(C(=O)OC2CCN(C)CC2)c1.Cl,4.78%
4,Cc1ccc(NC(=O)C(C)N2CCCC2)cc1Cl.Cl (stereo not shown),-27.7%
5,Cc1ccc(C)c(S(=O)(=O)N2CCN(C(=O)c3ccc4ccccc4n3)CC2)c1,-26%
6,CC1Sc2n(c3ccccc3[n+]2C)N=C1c1ccccc1.[Br-] (stereo not shown),-49.6%
7,Cc1sc2nc(C)n(/N=C/c3ccccc3)c(=O)c2c1C,-14.1%
8,Cn1c(=O)[nH]c(=O)c2c1nc1n2CCCN1Cc1ccccc1,1.21%
9,COc1cc2c(cc1NC(=O)C(C)Sc1cccc[n+]1[O-])oc1ccccc12 (stereo not shown),-38.5%
10,COc1cc(/C=N/NC(=S)NCCN2CCOCC2)cc(OC)c1O,12.7%
11,Cc1nccn1CC(=O)c1ccc(O)c(O)c1.Cl,12.3%
12,CCN(CC)S(=O)(=O)c1cccc(C(=O)N/N=C/c2ccccn2)c1,12.8%
13,COc1cc(NC(=O)C2CCCN(c3ncnc4c3nc3n4CCCCC3)C2)cc(OC)c1OC (stereo not shown),-6.46%
14,CCC(CO)NC(=O)c1cccc(S(=O)(=O)N2c3ccccc3CC2C)c1 (stereo not shown),2.65%
15,CCOc1ccc(C(=O)C[n+]2ccc(C(=O)NCc3ccccc3)cc2)cc1.[Br-],-36%
16,Cc1ccc(C(=O)N/C(=C/c2ccc(Cl)cc2)C(=O)Nc2cccc(C(=O)O)c2)cc1,4.27%
17,OCCC1CN(Cc2cccn2-c2nccs2)CCN1Cc1ccccc1 (stereo not shown),-69.3%
18,COc1ccc(F)c(CN(C)CC2CCCN(CCc3ccc(F)cc3)C2)c1 (stereo not shown),-73.4%
19,C=CCNC(=O)NC(=O)COC(=O)C(C)Oc1ccc(Cl)cc1Cl (stereo not shown),20.6%
20,O=C(CCCCCNc1nc(=S)[nH]c2ccccc12)N1CCN(c2ccccn2)CC1,-16.3%
21,O=C(c1ccc(Br)o1)N1CCN(CCOc2ccccc2)CC1,-54.1%
22,N#C/C(=C/c1ccc(Br)o1)C(N)=S,5.99%

row,SMILES,"hERG current change (%, negative = inhibition) at 10uM"
1,CC(SC1=NCCS1)C(=O)Nc1nnc(-c2ccc(F)cc2)s1 (stereo not shown),2.34%
2,CCC(C)n1c(=O)c2sccc2n2c(CCCC(=O)N3CCC(C(N)=O)CC3)nnc12 (stereo not shown),5.89%
3,O=C(Nc1ccc2[nH]ncc2c1)c1ccccc1,9.74%
4,COc1ccc(N2C(=S)NC(C)(C)CC2(C)c2ccc(OC(C)=O)cc2OC(C)=O)cc1 (stereo not shown),6.26%
5,CN1c2cccc3cccc(c23)N(C)C1(C)C,-7.83%
6,CCOC(=O)C1CCN(C(=O)CCS(=O)(=O)c2ccc3c(c2)n(C)c(=O)c(=O)n3C)CC1,10.3%
7,Cc1cc(NC(=O)c2cc(F)c(F)cc2Cl)no1,15%
8,CCOC(=O)C1(Cc2cccc(Cl)c2)CCCN(C(=O)c2cc(C)n(C)n2)C1 (stereo not shown),-10.6%
9,COc1ccc(OCCCC(=O)OCC(=O)Nc2sccc2C(N)=O)cc1,-1.66%
10,CCOC(=O)c1[nH]c(C)c(C(=O)OCC(=O)N(CC)C2CCS(=O)(=O)C2)c1C (stereo not shown),-8.58%
11,CC1CCCC(NC(=O)c2ccc3c(=O)n(CC4CCCO4)c(=O)[nH]c3c2)C1C (stereo not shown),-1.57%
12,Cc1cc2cc(CN(Cc3ccc4c(c3)OCO4)Cc3nnnn3C3CCCC3)c(=O)[nH]c2cc1C,-5.19%
13,CC1CN(CCc2ccccc2)C(C)C/C1=N/O (stereo not shown),4.75%
14,O=C(c1cccs1)N(C(=O)c1cccs1)c1ccc(Br)cn1,-16%
15,COc1cccc(-n2cnc3c(sc4nc(N5CCOCC5)c5c(c43)CCCC5)c2=O)c1,5.92%
16,CCOC(=O)c1sc2nc(C)c([N+](=O)[O-])c(COC)c2c1N,-3.52%
17,O=C(c1cccc(S(=O)(=O)N2CCN(c3ccc(F)cc3)CC2)c1)N1CCCCCCC1,-45.2%
18,CCc1nc2oc3cc(OC)ccc3c(=O)c2c(=O)n1Cc1ccco1,-48.4%
19,C/C(Nc1ccccc1C(F)(F)F)=C1/CCOC1=O,0.778%
20,COc1ccc(C(=O)Nc2cccc(-c3ccc(N4CCOCC4)nn3)c2)cc1,-37.8%
21,CCOc1ccc(S(=O)(=O)Nc2ccc(F)cc2)c(C)c1C,2.56%
22,Cc1c(Cc2ccccc2)c(=O)oc2cc(OCC(=O)NCC3CCC(C(=O)O)CC3)ccc12 (stereo not shown),18.2%

row,SMILES,"hERG current change (%, negative = inhibition) at 10uM"
1,COCCCNC(=S)N(CCO)Cc1cc2cc3c(cc2[nH]c1=O)OCO3,0.0736%
2,Cc1ccc(C(=O)Nc2c(C)n(C)n(-c3ccccc3)c2=O)cc1,18.5%
3,Cc1ccc(CNC(=O)C2CCC(=O)N2Cc2ccccc2Cl)cc1 (stereo not shown),2.52%
4,Cc1ccnc(NC(=O)COc2ccc(Cl)cc2)n1,10.1%
5,CCC(C)c1ccccc1OCCCCN1CCCC1 (stereo not shown),-48.8%
6,CC12CCC(c3c(C(=O)Nc4nccs4)nn(-c4ccccc4)c31)C2(C)C (stereo not shown),-2.19%
7,O=C1[C@@H]2[C@H](Cc3ccc(O)cc3)N[C@]3(C(=O)Nc4ccccc43)[C@@H]2C(=O)N1c1ccc(F)cc1,-7.41%
8,NC(=O)C1CCN(CCS(=O)(=O)c2ccc(Cl)cc2)CC1,5.76%
9,CC1(C)Cc2cccc(OCC(=O)N3CCN(c4ccccc4F)CC3)c2O1,-22.4%
10,COc1ccc(C(=O)OC(C)CN2CCN(C)CC2)cc1OC.Cl (stereo not shown),17%
11,COc1nc(OCCNC(C)=O)nc(N(C)C)n1,0.00028%
12,COc1ccc(Cc2nnc(SCc3c(C)noc3C)n2C2CCCCC2)cc1OC,-10.7%
13,O=C(Nc1ccccc1C(=O)N1CCOCC1)c1ccc(F)cc1,19.9%
14,O=C(N/N=C/C(Br)=C\c1ccccc1)c1n[nH]c2c1CCC2,-18.1%
15,Cc1ccc(S(=O)(=O)C2(C(=O)Nc3cccc(F)c3)CC2)cc1,0.141%
16,O=C(c1ccc(N2CCC3(CC2)OCCO3)c([N+](=O)[O-])c1)N1CCOCC1,1.16%
17,CC1Cc2cc(S(=O)(=O)N3CCC(C(=O)N(C)Cc4ccccc4)CC3)ccc2N1C(=O)C1CC1 (stereo not shown),2.78%
18,COc1cc(NC(=O)c2cccs2)ccc1NC(=O)c1cc2ccccc2o1,28.6%
19,O=C1CCCc2ccccc2N1Cc1ccc(Cl)cc1,-19%
20,Cc1cc(C(F)(F)F)nn1CC(=O)N1CCCC1,-5.53%
21,COc1cccc2sc3ccc(C#Cc4ccc(N)cc4)cc3c(=O)c12,5.83%
22,O=C(NC(=O)c1ccccc1N1CCCCC1)Nc1ccc(Br)cc1,16.2%
